# Test results reported in PubChem BioAssay AID686970 (National Center for Advancing Translational Sciences (NCATS), 2013).
# Hit rate of the full screen: of about 360,000 compounds, about 6,000 (1.7%) were called active. Inconclusive results, whose numbers are uncertain, are shown with a selection of clear calls. The call rests on the fitted dose curve; in most records, active means well fitted cell-killing curve with a large enough effect; inconclusive means small, poorly fitted or top-dose-only effect, or effect the other way; inactive means flat fitted curve, though single readings scatter. Potencies of inconclusive entries are left out as doubtful fits.
# Test: qHTS for induction of synthetic lethality in tumor cells producing 2HG: qHTS for the HT-1080-NT fibrosarcoma cell line;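 further: NT is the 2HG producing partner of a matched IDH1 knockdown line; nearly all actives have a fitted effect of over 55% in size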;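 on activity, negative = less viability: 0% = DMSO-treated cells and -100% = media-only wells without cells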
# Settings: HT-1080-NT fibrosarcoma viability, CellTiter-Glo ATP luminescence, 48 h; activity, negative = less viability: at 46.1 µM (top of the series) unless noted
# Procedure, shortened: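 750 cells/well, RPMI + 5% FBS; 2 h settle, compound pin-transfer, 48 h at 37 degrees C. CellTiter-Glo 10 min RT, luminescence. Normalized to DMSO and media-only wells.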
# Potency means the concentration at half of the fitted maximal effect; tags describe the fitted curve by direction and shape.
SMILES,Potency,"activity, negative = less viability"
O=[N+]([O-])c1ccc(S(=O)(=O)N2CCN(c3ccnc4cc(Cl)ccc34)CC2)cc1,inactive,–
COCCNC(=O)C1(C)CCN(Cc2noc(-c3c(C)noc3C)n2)C1 (centres undefined),"inconclusive [rising, single point]",–
NC(=O)c1nsc(C(=O)N(c2cccc(O)c2)C(C(=O)NC2CCCC2)c2ccc(Cl)cc2)c1N (centres undefined),inactive,–
CC(=O)Nc1ccc(-c2ccnc3c2CC(C(=O)Nc2ccc(C(C)C)cc2)O3)cc1 (centres undefined),"inconclusive [cytotoxic, single point]",–
COc1ccc(C(=O)O/N=C(\N)Cc2ccc(Cl)cc2)cc1OC,active: 14.6 µM,–
c1ccc2c(-c3cc(C4CCNCC4)[nH]n3)cccc2c1,active: 23.1 µM,–
CCOc1ccc(/C=N/NC(=O)c2cc3ccccc3cc2OC)cc1,inactive,–
Cc1cc2nc(C3CCCN(C(=S)Nc4ccccc4C)C3)[nH]c2cc1C (centres undefined),"inconclusive [cytotoxic, partial curve]",–
Cc1nn(CC(=O)NCc2cc3ccccc3[nH]2)c(C)c1[N+](=O)[O-],inactive,–
O=C(CSc1cccc[n+]1[O-])c1ccccc1Br,"inconclusive [cytotoxic, single point]",–
Cc1ccc(SC(C)C(=O)NC2CC2)cc1 (centres undefined),"inconclusive [rising, single point]",–
CC(O)CNc1nc2ccccc2n1-c1ncnc2sc3c(c12)CCC3 (centres undefined),"inconclusive [cytotoxic, single point]",–
Oc1ccccc1N1CCN(c2ncnc3scc(-c4ccccc4)c23)CC1,"inconclusive [cytotoxic, single point]",–
C/C(=N/NC(N)=S)c1ccc(Br)s1,"inconclusive [cytotoxic, single point]",–
CCCCCC(=O)N1C[C@@H](n2cc(-c3ccc(F)cc3)nn2)[C@H](O)C[C@@H]1c1ccc(OC)cc1,active: 18.4 µM,–
c1ccc(Cn2ncc3c(NCc4ccco4)ncnc32)cc1,"inconclusive [cytotoxic, single point]",–
CC1=CC(C)C(/C=N/N=C(N)N)C(C)C1 (centres undefined),"inconclusive [cytotoxic, single point]",–
COc1ccc(C2CC(C(F)(F)F)n3nc(C(=O)O)c(Br)c3N2)cc1 (centres undefined),inactive,–
Oc1ccc(Nc2nc(N3CCCC3)c3ccccc3n2)cc1,"inconclusive [cytotoxic, single point]",–
O=C1CCCC2=C1C(c1ccc(O)c(O)c1)Nc1ccc3ccccc3c12 (centres undefined),"inconclusive [cytotoxic, partial curve, poor fit]",–

SMILES,Potency,"activity, negative = less viability"
Cc1cc(=O)[nH]c2sc(C(=O)N3c4ccccc4CC3C)c(N)c12 (centres undefined),"inconclusive [cytotoxic, single point]",–
COc1ccc(C(=O)N/N=C/c2ccc3cccc(O)c3n2)cc1,"inconclusive [cytotoxic, single point]",–
O=C(C1CCN(S(=O)(=O)c2ccccc2)CC1)N1CCN(c2ccccc2)CC1,"inconclusive [cytotoxic, partial curve]",–
Cc1csc(NC(=O)CSc2nc3[nH]c(=O)cc(O)c3s2)n1,active: 5.8 µM,–
CCc1cc(N2CCOCC2)cc2c1[nH]c1ccccc12,"inconclusive [cytotoxic, single point]",–
CN(CCOc1ccccc1)C(=O)c1ccc(OC2CCN(C(=O)C3CC3)CC2)cc1,"inconclusive [cytotoxic, partial curve]",–
Cc1ccc2c(c1)-c1c(ssc1=S)C(C)(C)N2C(=O)CSc1nncn1C,inactive,–
CCOc1ccc(OCC(=O)OCC(=O)NCC2CCCO2)cc1 (centres undefined),inactive,–
CCCC(=O)NC(c1ccc2c(c1)OCO2)c1cc(Cl)c2cccnc2c1O (centres undefined),active: 8.2 µM,–
NC(c1ccccc1)c1csc(NC(=O)Nc2cccc(C(F)(F)F)c2)n1 (centres undefined),active: 18.4 µM,–
COCCCNCCCOc1ccc(Cl)cc1Br,"inconclusive [cytotoxic, single point]",–
Cc1cc(C(=O)NC2CCCc3c2cnn3-c2cccc(C)c2C)no1 (centres undefined),inactive,–
O=c1c2ccccc2nc2n1CC/C2=C/N1CCN(c2cccc(C(F)(F)F)c2)CC1,–,inconclusive: -30.6% [cytotoxic]
Cn1cc(CN2CCN(c3ccc(Cl)cn3)CC2)c(-c2ccccc2F)n1,inactive,–
C=CCOc1ccc2c(c1)c(S(=O)(=O)c1ccc(C)cc1)cn2COC,"inconclusive [cytotoxic, single point]",–
CC(=O)Oc1ccc(OC(C)=O)c2c1CC1(C)OC1(C)C2 (centres undefined),inactive,–
CC(=O)CSc1ncnc2sc3c(c12)CCCC3,inactive,–
COc1cc(C)ccc1OCC(=O)OCC(=O)NCC1CCCCC1,inactive,–
O=C(NCC(c1cccs1)N1CCOCC1)c1ccco1 (centres undefined),"inconclusive [cytotoxic, single point]",–
